In PubChem BioAssay AID1461 (National Center for Advancing Translational Sciences (NCATS), 2008):
The campaign covered roughly 220,000 compounds. About 2,300 (1%) were called active. The shares of active, inactive and inconclusive entries below differ from those in the screen. Calls come from the whole dose curve; as a rule, active = well fitted inhibition curve with a large enough effect; inconclusive = small, poorly fitted or top-dose-only effect, or effect the other way; inactive = no such curve, though single readings can be large or run the other way. No potency is given beside an inconclusive call; the fits are too rough.

Each molecule was assayed against Neuropeptide S receptor (Homo sapiens) (UniProt Q6W5P4) (assay: qHTS Assay for Antagonists of the Neuropeptide S Receptor: cAMP Signal Transduction). Details: CHO-NPSR cells, cAMP TR-FRET, antagonist mode; activity change, negative = inhibition: at 38.3 µM (top of the series) unless noted.
UniProt Q6W5P4, sequence (Q6W5P4 whole entry, looked up): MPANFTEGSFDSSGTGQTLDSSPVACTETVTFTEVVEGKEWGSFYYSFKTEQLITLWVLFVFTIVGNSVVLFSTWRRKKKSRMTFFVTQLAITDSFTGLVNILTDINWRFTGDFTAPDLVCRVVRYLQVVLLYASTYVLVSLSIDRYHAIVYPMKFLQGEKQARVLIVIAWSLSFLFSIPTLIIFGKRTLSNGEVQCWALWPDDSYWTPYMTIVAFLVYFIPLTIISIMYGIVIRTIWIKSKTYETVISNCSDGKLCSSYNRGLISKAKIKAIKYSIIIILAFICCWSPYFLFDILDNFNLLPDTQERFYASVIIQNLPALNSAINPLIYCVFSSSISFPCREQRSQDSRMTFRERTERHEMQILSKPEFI
% is set by controls: 0 for no effect and ±100 for the full control effect; potency is the fitted concentration of half-maximal effect; tags give direction and shape of the fitted curve.
Note: nearly all actives have a fitted effect of over 50% in size.

Row | SMILES | activity change, negative = inhibition | Potency
1 | CCOC(=O)C1=C(C)NC(=S)NC1c1ccco1 (stereo unspecified) | inactive: 9.63% [at 7.67 µM] | –
2 | Cc1csc(SCC(=O)Nc2ccc(S(=O)(=O)N3CCCC3)cc2)n1 | – | inactive
3 | Fc1ccc(Cn2nnnc2C(c2cccs2)N2CCN(C3CCCCC3)CC2)cc1 (stereo unspecified) | – | inconclusive [activator, single point]
4 | S=c1[nH]nc(-c2ccc(Cl)cc2)n1/N=C/c1ccco1 | – | inconclusive [inhibitor, single point]
5 | CC(C)CC(=O)NC1(C(F)(F)F)NC(=O)N(c2ccccc2)C1=O (stereo unspecified) | – | inactive
6 | O=C(c1cccc(Cl)c1)N1CCC(N2CCC(C(=O)N3CCOCC3)CC2)CC1 | – | inactive
7 | CC(C)c1ccc(NCCC(=O)c2cccs2)cc1 | – | inactive
8 | Cc1cc(N/N=C/c2ccccc2Cl)nc(NCc2ccccc2)n1 | – | inconclusive [inhibitor, single point]
9 | COc1ccc(-c2csc(N(CC3CCCO3)C(=O)c3cccs3)n2)cc1 (stereo unspecified) | – | inconclusive [inhibitor, single point]
10 | CCOc1ccc(Nc2cc(C)nc(-n3nc(C)cc3C)n2)cc1 | – | inconclusive [activator, partial curve]
11 | Cc1ccc(-c2nnc(CSc3nnc(COc4ccccc4)n3-c3ccc(C)cc3)o2)cc1 | – | inconclusive [inhibitor, single point]
12 | CCOC(=O)c1cc(C(C)(C)C)oc1CNC(=O)c1c(C)oc2c1CCCC2 | – | inconclusive [inhibitor, single point]
13 | CCOc1ccc(CCNC(=O)c2cc3sccc3n2C)cc1OCC | – | inconclusive [activator, partial curve, poor fit]
14 | CS(=O)(=O)c1nc(-c2ccc(Br)cc2)cc(-c2ccccc2)c1C#N | – | active: 7.94 µM
15 | CCC(CC)c1nnc(NC(=O)c2cc([N+](=O)[O-])ccc2N2CCCCC2)s1 | – | inconclusive [inhibitor, single point]
16 | COc1ccccc1-c1cc(C(F)(F)F)nc(S(C)(=O)=O)n1 | – | active: 7.94 µM
17 | O=C(c1ccccc1)c1ccc2nc(-c3ccc(NC(=O)c4ccccc4Br)cc3)[nH]c2c1 | – | inconclusive [inhibitor, partial curve]
18 | Cc1cccc(-c2nc3c(c(=O)c4ccccc4n3C)c(=O)n2-c2ccccc2)c1 | – | inactive
19 | CCCCCCCCCCn1ccc(=N)cc1 | – | active: 7.94 µM
20 | CC(C)(C)c1cc(C(C)(C)C)cc(S(=O)(=O)CCc2ccccn2)c1 | – | inconclusive [inhibitor, single point]
21 | COCCCNC(=O)CN(c1cccc(Cl)c1C)S(C)(=O)=O | – | inconclusive [inhibitor, single point]
22 | O=C(CSc1ccc2c(c1)OCCO2)NCc1ccco1 | – | inconclusive [inhibitor, full curve, poor fit]
23 | CCOc1ccc(NS(=O)(=O)c2ccc3[nH]c(=O)cc(C(=O)O)c3c2)cc1 | – | inactive
24 | CCOC(=O)C(=CNc1cc(C(F)(F)F)ccc1N1CCOCC1)C(=O)OCC | – | inconclusive [activator, partial curve]

Row | SMILES | activity change, negative = inhibition | Potency
25 | NC(=O)Nc1cccc2ccccc12 | – | inactive
26 | O=C1CCCC/C1=C\Nc1ccc(O)cc1 | – | inactive
27 | CCN(CC)S(=O)(=O)c1ccc2c(c1)nc(SCC(N)=O)n2-c1ccc(OC)cc1 | – | inconclusive [inhibitor, partial curve]
28 | NC(=O)c1sc2nc3c(c(-c4cccs4)c2c1N)CCCC3 | – | inactive
29 | Cc1nc(-n2[nH]c3c(c2=O)CCCC3)[nH]c(=O)c1Cc1ccccc1 | – | active: 7.94 µM
30 | COc1cccc(/C=N/Nc2nc3ccccc3[nH]2)c1OC | – | inactive
31 | Cc1ccc(C(C)C)c(OCC(=O)Nc2ccc(Cl)cn2)c1 | – | inconclusive [inhibitor, single point]
32 | CCCCCCOC(=O)Sc1nc2ccccc2o1 | – | inconclusive [inhibitor, single point]
33 | CC(C)(C)C(=O)NC(=S)Nc1cc(C(F)(F)F)ccc1N1CCOCC1 | – | inconclusive [inhibitor, partial curve, poor fit]
34 | O=C(CCCOc1ccc(Cl)cc1)Nc1nncs1 | – | inconclusive [inhibitor, single point]
35 | Cc1nc(NC(=O)c2ccccc2)sc1-c1csc(NCc2ccccc2)n1 | – | inconclusive [inhibitor, partial curve]
36 | CC(C)C1C(C#N)=C(N)Oc2n[nH]c(-c3ccc4ccccc4c3)c21 (stereo unspecified) | – | inconclusive [inhibitor, single point]
37 | O=C(O)C1CCCN1S(=O)(=O)c1ccc2ccccc2c1 (stereo unspecified) | – | inactive
38 | CCOc1ccc(NC(=O)CN2CCC(NC(=O)C3CCCCC3)CC2)cc1 | – | inconclusive [inhibitor, single point]
39 | COc1cccc(CNc2ccc(S(N)(=O)=O)cc2)c1OC | – | inconclusive [inhibitor, single point]
40 | CC(C)S(=O)(=O)c1csc(NC(=O)Nc2cc(Cl)ccc2Cl)c1Cl | – | inconclusive [activator, single point]
41 | COCCCNC(=S)N/N=C/c1ccc2ccccc2c1 | – | inconclusive [activator, single point]
42 | O=C(N/N=C/c1ccc(N2CCOCC2)o1)c1cccc(F)c1 | – | inconclusive [inhibitor, single point]
43 | CCCCCCCC#Cc1ccccc1/C=N/S(=O)c1ccc(C)cc1 (stereo unspecified) | – | inactive
44 | CC(C)C(OC(=O)c1ccco1)C(=O)NC1CCCCC1 (stereo unspecified) | – | inconclusive [inhibitor, single point]
45 | COc1ccc(CCn2c(C)cc(C(=O)CSc3nnc(N)s3)c2C)cc1 | – | inconclusive [inhibitor, partial curve, poor fit]
46 | CCOc1ccc(C(CCc2ccccc2)NC(=O)c2ccccc2)cc1OCC (stereo unspecified) | – | inconclusive [inhibitor, partial curve]
47 | O=c1cc(-c2ccccc2)[nH]c2[nH]n(-c3ccccc3)c(=O)c12 | – | inactive
48 | CCOC(=O)CSc1nc2c(c(-c3ccc(C)o3)c1C#N)CCCC2 | – | inconclusive [inhibitor, partial curve]

Row | SMILES | activity change, negative = inhibition | Potency
49 | CC1(C)CC(=O)C(C(C#Cc2ccccc2)C2=C(O)CC(C)(C)CC2=O)=C(O)C1 | – | inactive
50 | O=C(CN(c1cccc(C(F)(F)F)c1)S(=O)(=O)c1ccc(Cl)c([N+](=O)[O-])c1)NCc1ccccc1Cl | – | inconclusive [inhibitor, single point]
51 | Cc1ccc(N/C=C/C(=O)C(C)(C)C)c(O)c1 | – | inconclusive [inhibitor, single point]
52 | CC(C)CN(C(=O)c1nn(C)c(=O)c2ccccc12)c1nc2ccccc2s1 | – | inconclusive [inhibitor, single point]
53 | CN(C)c1ccc(/C=C(/C(=O)c2ccc(Cl)cc2Cl)n2cncn2)cc1 | – | inactive
54 | COc1cc2c(cc1OC)C(c1ccc(-c3ccc(Cl)cc3Cl)o1)=NCC2 | – | active: 7.94 µM
55 | COC(=O)C1=C(C)N(C)C(C)=C(C(=O)OC)C1c1ccc(Cl)cc1 | – | inconclusive [inhibitor, single point]
56 | COc1ccc(S(=O)(=O)Cc2ccc(C(=O)N3CCN(C(=O)c4ccco4)CC3)o2)cc1 | – | inactive
57 | COc1ccc(C(=O)OCC(=O)c2c(N)n(C)c(=O)n(C)c2=O)cc1OC | – | inactive
58 | Cc1ccc(S(=O)(=O)C2(C(=O)N3CCCCCC3)CC2)cc1 | – | inconclusive [activator, single point]
59 | CC(C)(C)NC(=O)c1ccc2c(c1)N(CC(=O)N1CCN(c3ccccc3F)CC1)C(=O)C(C)(C)O2 | – | inconclusive [inhibitor, single point]
60 | O=C(C1=C[C@H](c2ccc(Br)cc2)C[C@H](OCCCCO)O1)N1CCN(Cc2ccc3c(c2)OCO3)CC1 | – | inconclusive [activator, partial curve]
61 | Cc1ccc(S(=O)(=O)NCC(=O)Nc2cccc([N+](=O)[O-])c2)cc1 | – | inactive
62 | Cc1ccc2cc(CN(CCCN3CCOCC3)C(=O)NC3CCCCC3)c(=O)[nH]c2c1C | – | inconclusive [inhibitor, single point]
63 | OC(CNCC(c1ccc(Cl)cc1Cl)c1c[nH]c2ccccc12)c1ccccc1 (stereo unspecified) | – | inconclusive [inhibitor, single point]
64 | Cc1cccc2c(C(=O)N3CCN(C(=O)c4ccco4)CC3)cc(-c3cccc(Br)c3)nc12 | – | inactive
65 | COc1ccc(OCC(=O)NNc2c3ccccc3nc3ccccc23)cc1 | – | inconclusive [inhibitor, single point]
66 | Cc1ccc(C(=O)Nc2ccccc2C(=O)N2CCCCCC2)cc1 | – | inconclusive [activator, partial curve]
67 | N=c1c2c(-c3ccccc3)c(-c3ccccc3)n(Cc3ccccc3)c2ncn1CCCO | – | inconclusive [inhibitor, single point]
68 | O=C(COC(=O)CCc1nc2ccccc2s1)Nc1ncc(Cl)cc1Cl | – | inactive
69 | CNC(=S)N1N=C(c2ccccc2)CC1c1ccccc1Cl (stereo unspecified) | – | inconclusive [activator, partial curve]
70 | CCOCCn1c(N2CCN(c3ccccc3)CC2)nc2c1c(=O)n(C)c(=O)n2C | – | inactive
71 | O=C(O)COc1ccc(C(=O)Cc2ccc3c(c2)OCCCO3)c(O)c1 | – | inconclusive [inhibitor, partial curve, poor fit]
